Experimental data taken from article PMC12040169 (PLOS Biology, 2025).
The list shows a part of the results.

system: T1, C. trachomatis L2/434/Bu expressing GFP (CTL2-GFP); design: species or system HeLa; C. trachomatis total inclusion area by high-content imaging, normalised to DMSO; settings: total inclusion area; 28.5 h, 10 µM; inhibitor
T1 construct: L2/434/Bu GFP intracellular growth in HeLa cells
How it was run: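 Host cell viability was gauged from Hoechst-stained nuclei counts, while chlamydial growth was taken from total inclusion area and inclusion number per well. Cells were fixed and imaged by high-content microscopy once bulk GFP and resorufin fluorescence had been measured.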

Structure (SMILES)	% of control remaining
CCn1c(SCC(=O)Nc2ccc([N+](=O)[O-])cc2)nnc1C(NC(=O)c1ccccc1)C(C)C (stereo not shown) [CBK107508]	96.0877
CCCN[C@@H]1CCc2cc(CNC(=O)c3ccc(C#N)cc3)ccc2C1 [CBK010211C]	70.5767
Cc1ccccc1N1C(=O)/C(=C/c2cn(Cc3ccccc3[N+](=O)[O-])c3ccccc23)SC1=S [CBK265101]	116.241
Cc1cc2c(=O)n(CC(=O)NCc3ccco3)cnc2s1 [CBK071898]	100.599
O=c1[nH]c2ncc(-c3ccoc3)nc2n1Cc1cccs1 [CBK064647]	166.33
Cc1cc(NC(=O)c2cscn2)c2ccccc2n1 [CBK116275]	98.5749
N#Cc1cccc(C(=O)N2CCC(NC(=O)c3ccc(F)cc3)CC2)c1 [CBK305717]	96.956
Cc1cccc(-c2noc(CN(C(=O)c3ccc4c(c3)OCO4)C(C)C)n2)c1 [CBK268817]	86.0988
Cc1nn(-c2ccc(F)cc2)c(C)c1CNC(=O)CCC1CCCO1 (stereo not shown) [CBK281456]	108.501
Cc1oc(NC(=O)CN(C)Cc2cccc(F)c2)c(C#N)c1C [CBK305609]	58.7972
CCC(CC)C(=O)N1CCC2(CC1)Nc1cccnc1-n1cccc12 [CBK284508]	93.4702
CN(c1ncc(-c2cc3ccccc3o2)cc1C(=O)Nc1ccc2c(c1)OCO2)S(C)(=O)=O [CBK106464]	101.991
O=C(Nc1ccccn1)c1cc2ccccc2oc1=O [CBK287354]	95.3968
CN(Cc1ccccc1)S(=O)(=O)c1ccc(OCC(=O)O)cc1 [CBK276426]	99.823
Cc1ccc(Oc2ccc(S(=O)(=O)N3CCOCC3)cc2C(=O)O)cc1 [CBK286748]	82.0211
CN(C)c1cccc(Nc2ccc(-c3cccc(C(=O)O)c3)cn2)c1 [CBK036879]	146.145
CS(=O)(=O)N1CCN(c2ccccc2NC(=O)c2cccnc2)CC1 [CBK267604]	95.0749
COc1ccc(CN2CCCN(S(=O)(=O)c3ccc(-c4ccccc4)cc3)CC2)cc1F [CBK063108]	94.5993
COc1ccc(Sc2ncccc2C(F)(F)F)cc1OC [CBK093760]	113.264
CSc1ccccc1CNC(=O)c1ccc(C)nc1N1CCOCC1 [CBK106224]	91.3174
O=C1NC(=O)C(CCCCN2CCCC3(CCN(C(=O)c4ccoc4)C3)C2)N1 (stereo not shown) [CBK132833]	91.0525
O=C(O)c1ccccc1C(=O)Nc1ccc(Oc2cccc3ccccc23)cc1 [CBK265131]	90.9882
COc1ccc(Br)cc1CNCc1ccc(C(=O)O)cc1 [CBK269449C]	100.944
CN(C)CC(C)(C)CNC(=O)C1=CC(=O)CC(C)(C)O1 [CBK153291]	81.4929
CC(C)(C)CC(=O)N1C[C@@H]2C[C@H](C1)c1ccc(NC(=O)Nc3ccccc3)c(=O)n1C2 [CBK289176]	122.63
CCCCn1c(S)nc2c(-c3ccccc3)c[nH]c2c1=O [CBK288505]	43.3768
COc1ccc(Br)cc1/C=N/NC(=O)C1CC(c2ccccc2)(c2ccccc2)C1 [CBK263218]	89.1116

Structure (SMILES)	% of control remaining
c1ccc(CN2CCN(c3nccnc3OCCN3CCOCC3)CC2)cc1 [CBK082885T]	73.9342
CS(=O)(=O)c1ccc(Nc2ccc3c(c2)COC2(CCN(C(=O)Cc4ccc(F)cc4F)C2)O3)cc1 (stereo not shown) [CBK131948]	111.871
Cc1cc2ccccc2n1CCC(=O)NC1CCCOC1 (stereo not shown) [CBK283152]	96.9927
C=Cn1cccc1C(=O)N1C2CCC1c1cnc3cc(C)nn3c1C2 (stereo not shown) [CBK284382]	97.2813
Cn1cc(C(=O)NC2CCN(C(=O)c3ccc(C#N)cc3)CC2)cn1 [CBK305683]	76.9073
Cc1cc(OCC(=O)N(C)C)c2c3c(c(=O)oc2c1)CCCC3 [CBK307189]	88.0674
O=C(N/N=C/c1cc2c(cc1Cl)OCO2)C(O)c1ccccc1 (stereo not shown) [CBK262177]	94.5703
CCOC(=O)Nc1ccc2c(c1)N(C(=O)CCN(C)C)c1ccccc1CC2 [CBK278193C]	103.766
Cc1ccc2[nH]c(-c3ccccc3NC(=O)CCCC(=O)O)nc2c1 [CBK295154]	108.853
Cc1ccc(-c2nc3ccccc3[nH]2)cc1NC(=O)CSc1ccc(Cl)cc1 [CBK268942]	104.798
Cc1nnc(N2C(=O)c3oc4ccccc4c(=O)c3C2c2ccc(OCc3ccccc3)cc2)s1 (stereo not shown) [CBK266287]	126.028
CC(=O)NCCn1nc(-c2ccccc2F)cc1CN(C)C [CBK283473]	103.878
Cc1cc(C(=O)N2CCC(C(=O)NC(c3cnccn3)c3ccccc3C)CC2)no1 (stereo not shown) [CBK059810]	89.9896
O=C(O)/C=C/c1cccc(-c2cncc(NCCc3ccncc3)n2)c1 [CBK065358]	138.805
COc1ccc(C(NC(=O)C2CCN(Cc3ccc4c(c3)OCO4)CC2)c2ccccc2C)cn1 (stereo not shown) [CBK081453T]	102.758
CCOc1cccc(CNc2ccc(O)cc2)c1OCc1ccc(Cl)cc1Cl [CBK074528]	68.6993
Cc1nc(C2CCN(C(=O)c3ccnn3C)CC2)c2sccn12 [CBK285203]	89.3919
O=C(c1ccco1)N1CCC(c2nnc(-c3ccccc3)c(-c3ccccc3)n2)CC1 [CBK286282]	118.773
CCNc1ncc(C(=O)N2CCC(Nc3cccnc3)CC2)s1 [CBK304047]	60.4144
Nc1nonc1C(=O)NCCNS(=O)(=O)c1ccc(F)cc1 [CBK265980]	83.0691
CN1CCCC1C(CCNC1CCCCC1)c1ccccc1 (stereo not shown) [CBK023921C]	39.321
CCCn1c(O)cc(=O)nc1SCC(=O)N1CCCc2ccccc21 [CBK304977]	76.3945
CC(Oc1ccc2c(c1)OCO2)C(=O)N1CCc2sccc2C1c1ccccc1 (stereo not shown) [CBK285549]	108.191
O=C(NCCCN1CCOCC1)Nc1ccccc1F [CBK269233]	88.3027
Cc1cc(C)nc(SCC(=O)c2ccc(F)cc2)n1 [CBK092116]	52.5915
CCn1cc(CN(C)Cc2ccon2)c2cc(C(=O)O)ncc21 [CBK307017]	87.1462
O=C(c1cc(F)cc(F)c1)N1CCC(c2cccnc2)CC1 [CBK283892]	77.0093

Structure (SMILES)	% of control remaining
COc1cc(/C=N/Nc2nnn[nH]2)cc2c1OCO2 [CBK262253]	102.861
O=C(N[C@@H](Cn1cc(Cl)c(=O)[nH]c1=O)C(=O)O)c1cccc(F)c1 [CBK289650]	123.898
COc1cc(CN2CCN(c3cc(C)ccc3C)CC2)cc([N+](=O)[O-])c1O [CBK261868]	103.969
CCC(C)NC(=O)c1ccccc1NS(=O)(=O)c1cc(C(=O)O)cs1 (stereo not shown) [CBK295652]	107.959
COc1cc(NC(=O)N[C@@H]2CN(C)C[C@H]2c2ccc(OC)c(OC)c2)cc(OC)c1 [CBK081112]	71.5917
Cc1cccc(C2(O)CCN(CC(O)c3ccccc3)CC2)c1 (stereo not shown) [CBK286325]	98.0789
NNc1nc(-c2ccccc2)cc(-c2ccc(Br)cc2)n1 [CBK261795]	102.952
O=C(CSc1nsc(SCC(=O)c2ccccc2)n1)c1ccccc1 [CBK264142]	96.7852
CS(=O)(=O)Nc1ccc2cc(-c3ccc(Oc4ccccc4)cc3)cnc2n1 [CBK085674]	115.196
FC(F)(F)c1ccnc(OCCN2CCNCC2)c1 [CBK113459]	105.515
Cc1ccccc1C(=O)NCCNC(=O)c1cccnc1 [CBK269222]	85.1879
O=C(Nc1ccc([C@@H](O)[C@H]2COCC(=O)N2Cc2ccc(F)cc2)cc1)c1ccccc1 [CBK289061]	121.322
O=C(C1=C(O)C(=O)N(CCN2CCOCC2)C1c1ccco1)c1cccs1 (stereo not shown) [CBK264506]	109.438
O=C(NCc1cccs1)c1ccccc1Nc1cccc(C(F)(F)F)c1 [CBK149557]	55.0903
CC(C)NCC(O)Cn1c2c(c3ccccc31)CCc1c-2cnn1-c1ccccc1 (stereo not shown) [CBK261107]	42.481
COc1ccc([C@@]23CC[C@@H](NC(=O)Nc4ccc(F)c(F)c4)C[C@@H]2N(C)CC3)cc1O [CBK051630]	79.1394
O=C(O)Cn1nnc(-c2ccc(C(=O)O)cc2)n1 [CBK267926]	96.4385
O=C(Nc1ccc(F)cc1Cl)c1cnc2n(c1=O)CCS2 [CBK287382]	70.576
CN1CC[C@]2(c3ccc4c(c3)nnn4C)CC[C@@H](NC(=O)Nc3cc(F)cc(C(F)(F)F)c3)C[C@H]12 [CBK067800]	83.3579
C(=C\c1ccccc1)/CN1CCC(Cc2ccccc2)CC1 [CBK126384]	104.065
CSc1cccc(NC(=S)N2CCCCC2CCN2CCOCC2)c1 (stereo not shown) [CBK028765]	24.657
Cc1ccc(C(=O)NCc2cccnc2)c(N2CCOCC2)n1 [CBK076400]	97.3539
CCOC(=O)c1cn(CC)c2cc(N3CCOCC3)c(F)cc2c1=O [CBK307142]	93.9785
COc1ccc(Nc2n[nH]c3nc(C)cc(=O)n23)cc1 [CBK288117]	92.5473
CC(Sc1nc(-c2ccccc2F)n[nH]1)C(=O)N1CCNC1=O (stereo not shown) [CBK295594]	118.731
